# Measurements as given in the supplement of paper PMC8728848.
# The other results are listed elsewhere or left out.
# Legend:
# Assay in all cases: glycan array binding signal (z-score within array); higher = stronger binding
# Settings in all cases: glycan notation: IUPAC condensed, linker removed
# [1] = target: Neu5Ac(a2-3)Gal(b1-3)GalNAc6S
# How it was run: (§1)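 Negative Z-scores can be read as non-binding. The Z-score is calculated within each array and then averaged across arrays of one protein sequence at different concentrations or buffers and across linkers. Arrays, 3228 in all, were curated from the Consortium for Functional Glycomics database and kept only where the protein sequence was available.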
# [2] = target: Neu5Ac(a2-3)Gal(b1-3)GlcNAc
# How it was run: as §1
# [3] = target: Neu5Ac(a2-3)Gal(b1-3)GlcNAc(b1-2)Man
# How it was run: as §1
# [4] = target: Neu5Ac(a2-3)Gal(b1-3)GlcNAc(b1-2)Man(a1-3)[GlcNAc(b1-4)][Neu5Ac(a2-3)Gal(b1-3)GlcNAc(b1-2)Man(a1-6)]Man(b1-4)GlcNAc(b1-4)GlcNAc
# How it was run: as §1
# [5] = target: Neu5Ac(a2-3)Gal(b1-3)GlcNAc(b1-2)Man(a1-3)[Neu5Ac(a2-3)Gal(b1-3)GlcNAc(b1-2)Man(a1-6)]Man(b1-4)GlcNAc(b1-4)GlcNAc
# How it was run: as §1
# [6] = target: Neu5Ac(a2-3)Gal(b1-3)GlcNAc(b1-2)[Neu5Ac(a2-3)Gal(b1-3)GlcNAc(b1-4)]Man(a1-6)[Neu5Ac(a2-3)Gal(b1-3)GlcNAc(b1-2)Man(a1-3)]Man(b1-4)GlcNAc(b1-4)GlcNAc
# How it was run: as §1
# [7] = target: Neu5Ac(a2-3)Gal(b1-3)GlcNAc(b1-3)Gal(b1-3)GlcNAc
# How it was run: as §1
# [8] = target: Neu5Ac(a2-3)Gal(b1-3)GlcNAc(b1-3)Gal(b1-4)GlcNAc
# How it was run: as §1
# [9] = target: Neu5Ac(a2-3)Gal(b1-3)GlcNAc(b1-3)GalNAc
# How it was run: as §1
# [10] = target: Neu5Ac(a2-3)Gal(b1-3)GlcNAc(b1-4)Gal(b1-4)Glc
# How it was run: as §1
# [11] = target: Neu5Ac(a2-3)Gal(b1-3)GlcNAc(b1-6)GalNAc
# How it was run: as §1
# [12] = target: Neu5Ac(a2-3)Gal(b1-3)GlcNAc6S
# How it was run: as §1
# [13] = target: Neu5Ac(a2-3)Gal(b1-3)[Fuc(a1-4)]GlcNAc
# How it was run: as §1
# [14] = target: Neu5Ac(a2-3)Gal(b1-3)[Fuc(a1-4)]GlcNAc(b1-3)Gal(b1-3)[Fuc(a1-4)]GlcNAc
# How it was run: as §1
# [15] = target: Neu5Ac(a2-3)Gal(b1-3)[Fuc(a1-4)]GlcNAc(b1-3)Gal(b1-4)[Fuc(a1-3)]GlcNAc
# How it was run: as §1
# [16] = target: Neu5Ac(a2-3)Gal(b1-3)[GlcNAc(b1-6)]GalNAc
# How it was run: as §1
# [17] = target: Neu5Ac(a2-3)Gal(b1-3)[Neu5Ac(a2-3)Gal(b1-4)]GlcNAc
# How it was run: as §1
# [18] = target: Neu5Ac(a2-3)Gal(b1-3)[Neu5Ac(a2-6)]GalNAc
# How it was run: as §1
# [19] = target: Neu5Ac(a2-3)Gal(b1-3)[Neu5Ac(a2-6)]GlcNAc(b1-3)[Fuc(a1-3)[Gal(b1-4)]GlcNAc(b1-6)]Gal(b1-4)Glc
# How it was run: as §1
# [20] = target: Neu5Ac(a2-3)Gal(b1-3)]Neu5Ac(a2-3)Gal(b1-4)]GlcNAc
# How it was run: as §1
# [21] = target: Neu5Ac(a2-3)Gal(b1-4)Glc
# How it was run: as §1
# [22] = target: Neu5Ac(a2-3)Gal(b1-4)GlcNAc
# How it was run: as §1
# [23] = target: Neu5Ac(a2-3)Gal(b1-4)GlcNAc(b1-2)Man
# How it was run: as §1
# [24] = target: Neu5Ac(a2-3)Gal(b1-4)GlcNAc(b1-2)Man(a1-3)[GlcNAc(b1-2)Man(b1-4)GlcNAc(b1-2)Man(a1-6)]Man(b1-4)GlcNAc(b1-4)GlcNAc
# How it was run: as §1
# [25] = target: Neu5Ac(a2-3)Gal(b1-4)GlcNAc(b1-2)Man(a1-3)[GlcNAc(b1-4)][Neu5Ac(a2-3)Gal(b1-4)GlcNAc(b1-2)Man(a1-6)]Man(b1-4)GlcNAc(b1-4)GlcNAc
# How it was run: as §1
# [26] = target: Neu5Ac(a2-3)Gal(b1-4)GlcNAc(b1-2)Man(a1-3)[Neu5Ac(a2-3)Gal(b1-4)GlcNAc(b1-2)Man(a1-6)]Man(b1-4)GlcNAc(b1-4)GlcNAc
# How it was run: as §1
# [27] = target: Neu5Ac(a2-3)Gal(b1-4)GlcNAc(b1-2)Man(a1-3)[Neu5Ac(a2-3)Gal(b1-4)GlcNAc(b1-2)Man(a1-6)]Man(b1-4)GlcNAc(b1-4)[Fuc(a1-6)]GlcNAc
# How it was run: as §1
# [28] = target: Neu5Ac(a2-3)Gal(b1-4)GlcNAc(b1-2)Man(a1-3)[Neu5Ac(a2-6)Gal(b1-4)GlcNAc(b1-2)Man(a1-6)]Man(b1-4)GlcNAc(b1-4)GlcNAc
# How it was run: as §1
# [29] = target: Neu5Ac(a2-3)Gal(b1-4)GlcNAc(b1-2)[Neu5Ac(a2-3)Gal(b1-4)GlcNAc(b1-4)]Man(a1-3)[GlcNAc(b1-4)][Neu5Ac(a2-3)Gal(b1-4)GlcNAc(b1-2)[Neu5Ac(a2-3)Gal(b1-4)GlcNAc(b1-6)]Man(a1-6)]Man(b1-4)GlcNAc(b1-4)GlcNAc
# How it was run: as §1
# [30] = target: Neu5Ac(a2-3)Gal(b1-4)GlcNAc(b1-2)[Neu5Ac(a2-3)Gal(b1-4)GlcNAc(b1-4)]Man(a1-3)[GlcNAc(b1-4)][Neu5Ac(a2-3)Gal(b1-4)GlcNAc(b1-4)Man(a1-6)]Man(b1-4)GlcNAc(b1-4)GlcNAc
# How it was run: as §1
# [31] = target: Neu5Ac(a2-3)Gal(b1-4)GlcNAc(b1-2)[Neu5Ac(a2-3)Gal(b1-4)GlcNAc(b1-6)]Man(a1-6)[Neu5Ac(a2-3)Gal(b1-4)GlcNAc(b1-2)Man(a1-3)]Man(b1-4)GlcNAc(b1-4)GlcNAc
# How it was run: as §1
# [32] = target: Neu5Ac(a2-3)Gal(b1-4)GlcNAc(b1-2)[Neu5Ac(a2-3)Gal(b1-4)GlcNAc(b1-6)]Man(a1-6)[Neu5Ac(a2-3)Gal(b1-4)GlcNAc(b1-2)Man(a1-3)][GlcNAc(b1-4)]Man(b1-4)GlcNAc(b1-4)GlcNAc
# How it was run: as §1
# [33] = target: Neu5Ac(a2-3)Gal(b1-4)GlcNAc(b1-3)Gal
# How it was run: as §1
# [34] = target: Neu5Ac(a2-3)Gal(b1-4)GlcNAc(b1-3)Gal(b1-3)GlcNAc
# How it was run: as §1
# [35] = target: Neu5Ac(a2-3)Gal(b1-4)GlcNAc(b1-3)Gal(b1-4)GlcNAc
# How it was run: as §1
# [36] = target: Neu5Ac(a2-3)Gal(b1-4)GlcNAc(b1-3)Gal(b1-4)GlcNAc(b1-2)Man(a1-3)[Neu5Ac(a2-3)Gal(b1-4)GlcNAc(b1-3)Gal(b1-4)GlcNAc(b1-2)Man(a1-6)]Man(b1-4)GlcNAc(b1-4)GlcNAc
# How it was run: as §1
# [37] = target: Neu5Ac(a2-3)Gal(b1-4)GlcNAc(b1-3)Gal(b1-4)GlcNAc(b1-3)Gal(b1-4)GlcNAc
# How it was run: as §1
# [38] = target: Neu5Ac(a2-3)Gal(b1-4)GlcNAc(b1-3)Gal(b1-4)GlcNAc(b1-3)Gal(b1-4)GlcNAc(b1-2)Man(a1-3)[Neu5Ac(a2-3)Gal(b1-4)GlcNAc(b1-3)Gal(b1-4)GlcNAc(b1-3)Gal(b1-4)GlcNAc(b1-2)Man(a1-6)]GalNAc
# How it was run: as §1
# [39] = target: Neu5Ac(a2-3)Gal(b1-4)GlcNAc(b1-3)Gal(b1-4)GlcNAc(b1-3)GalNAc
# How it was run: as §1
# [40] = target: Neu5Ac(a2-3)Gal(b1-4)GlcNAc(b1-3)Gal(b1-4)GlcNAc(b1-3)[Neu5Ac(a2-3)Gal(b1-4)GlcNAc(b1-3)Gal(b1-4)GlcNAc(b1-6)]GalNAc
# How it was run: as §1
# [41] = target: Neu5Ac(a2-3)Gal(b1-4)GlcNAc(b1-3)Gal(b1-4)GlcNAc(b1-6)[Gal(b1-3)]GalNAc
# How it was run: as §1
# [42] = target: Neu5Ac(a2-3)Gal(b1-4)GlcNAc(b1-3)Gal(b1-4)[Fuc(a1-3)]GlcNAc
# How it was run: as §1
# [43] = target: Neu5Ac(a2-3)Gal(b1-4)GlcNAc(b1-3)GalNAc
# How it was run: as §1
# [44] = target: Neu5Ac(a2-3)Gal(b1-4)GlcNAc(b1-3)[Neu5Ac(a2-3)Gal(b1-4)GlcNAc(b1-6)]GalNAc
# How it was run: as §1
# [45] = target: Neu5Ac(a2-3)Gal(b1-4)GlcNAc(b1-6)GalNAc
# How it was run: as §1
binder,measurement,setting,value
"GNA (Galanthus nivalis), P30617 (protein) MAKASLLILAAIFLGVITPSCLSDNILYSGETLSTGEFLNYGSFVFIMQEDCNLVLYDVDKPIWATNTGGLSRSCFLSMQTDGNLVVYNPSNKPIWASNTGGQNGNYVCILQKDRNVVIYGTDRWATGTHTGLVGIPASPPSEKYPTAGKIKLVTAK",glycan array binding signal (z-score),[1],-0.1
same,glycan array binding signal (z-score),[2],-0.17
same,glycan array binding signal (z-score),[3],-0.137
same,glycan array binding signal (z-score),[4],-0.114
same,glycan array binding signal (z-score),[5],-0.094
same,glycan array binding signal (z-score),[6],-0.033
same,glycan array binding signal (z-score),[7],-0.219
same,glycan array binding signal (z-score),[8],-0.158
same,glycan array binding signal (z-score),[9],-0.162
same,glycan array binding signal (z-score),[10],-0.145
same,glycan array binding signal (z-score),[11],-0.168
same,glycan array binding signal (z-score),[12],-0.198
same,glycan array binding signal (z-score),[13],-0.176
same,glycan array binding signal (z-score),[14],-0.174
same,glycan array binding signal (z-score),[15],-0.321
same,glycan array binding signal (z-score),[16],-0.166
same,glycan array binding signal (z-score),[17],-0.205
same,glycan array binding signal (z-score),[18],-0.121
same,glycan array binding signal (z-score),[19],-0.164
same,glycan array binding signal (z-score),[20],-0.157
same,glycan array binding signal (z-score),[21],-0.111
same,glycan array binding signal (z-score),[22],-0.179
same,glycan array binding signal (z-score),[23],-0.147
same,glycan array binding signal (z-score),[24],-0.242
same,glycan array binding signal (z-score),[25],-0.18
same,glycan array binding signal (z-score),[26],-0.163
same,glycan array binding signal (z-score),[27],-0.163
same,glycan array binding signal (z-score),[28],-0.235
same,glycan array binding signal (z-score),[29],-0.185
same,glycan array binding signal (z-score),[30],-0.178
same,glycan array binding signal (z-score),[31],-0.108
same,glycan array binding signal (z-score),[32],-0.169
same,glycan array binding signal (z-score),[33],-0.164
same,glycan array binding signal (z-score),[34],-0.19
same,glycan array binding signal (z-score),[35],-0.204
same,glycan array binding signal (z-score),[36],0.02
same,glycan array binding signal (z-score),[37],-0.093
same,glycan array binding signal (z-score),[38],0.162
same,glycan array binding signal (z-score),[39],-0.172
same,glycan array binding signal (z-score),[40],-0.132
same,glycan array binding signal (z-score),[41],-0.093
same,glycan array binding signal (z-score),[42],-0.082
same,glycan array binding signal (z-score),[43],-0.218
same,glycan array binding signal (z-score),[44],-0.171
same,glycan array binding signal (z-score),[45],-0.171
